Data as given in PubChem BioAssay AID485294 (National Center for Advancing Translational Sciences (NCATS), 2010).
Screen size: about 370,000 compounds; about 150 (0.041%) were called active. Inconclusive results, whose numbers are uncertain, are shown with a selection of clear calls. The call rests on the fitted dose curve; in most records, active means well fitted inhibition curve with a large enough effect; inconclusive means small, poorly fitted or top-dose-only effect; inactive means flat fitted curve, though single readings scatter. No potency is given beside an inconclusive call; the fits are too rough.

biological target: Beta-lactamase (Escherichia coli (strain K12)) (UniProt P00811); experiment: qHTS Inhibitors of AmpC Beta-Lactamase (assay with detergent); conditions: AmpC hydrolysis of nitrocefin, absorbance 480 nm, 0.01% Triton; activity change, negative = inhibition: at 114 µM (top of the series); further: nearly all actives have a fitted effect of over 25% in size;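 on activity change, negative = inhibition: 0% = no-compound wells and -100% = no-enzyme wells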
In short: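 AmpC (5.3 nM in the dispensed reagent) in 20 mM phosphate pH 7.0 with 0.01% (detergent screen) or 0.0001% Triton X-100 was preincubated with compounds for 15 min at room temperature. Nitrocefin was then added from an 800 uM solution, and hydrolysis was followed at 480 nm.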
Potency means the concentration at half of the fitted maximal effect; tags describe the fitted curve by direction and shape.

Chain of UniProt P00811 (P00811 whole entry, looked up): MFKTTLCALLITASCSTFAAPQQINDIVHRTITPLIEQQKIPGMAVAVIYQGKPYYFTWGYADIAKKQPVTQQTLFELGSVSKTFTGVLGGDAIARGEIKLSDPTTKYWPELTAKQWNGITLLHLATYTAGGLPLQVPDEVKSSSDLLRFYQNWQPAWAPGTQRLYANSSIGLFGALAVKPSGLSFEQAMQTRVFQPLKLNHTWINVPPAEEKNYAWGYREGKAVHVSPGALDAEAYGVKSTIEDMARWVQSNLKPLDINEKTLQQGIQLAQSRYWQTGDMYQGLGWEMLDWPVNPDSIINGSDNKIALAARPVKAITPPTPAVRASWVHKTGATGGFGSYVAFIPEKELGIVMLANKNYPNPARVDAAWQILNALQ

Compound | Potency | activity change, negative = inhibition
COc1ccc(C(=O)N2CCN(c3ccccc3)CC2)cc1S(=O)(=O)N1CCOCC1 | inconclusive [inhibitor, full curve, poor fit] | –
Cc1ccc(S(=O)(=O)c2nc(-c3ccccc3Cl)oc2N2CCCCCC2)cc1 | – | inactive: 2.89%
O=C(NC1CCCCC1)N1CCC(n2cnc3ccccc32)CC1 | inconclusive [inhibitor, full curve, poor fit] | –
CC(=O)C1C2c3ccccc3OC1(C)N=c1s/c(=C/c3cnn(C)c3)c(=O)n12 (configuration not stated) | inconclusive [inhibitor, partial curve, poor fit] | –
CC(C)OCCCNC(=O)c1c(N)n(Cc2cccs2)c2nc3ccccc3nc12 | – | inactive: -7.93%
CCCOP(=O)(c1ccc(N(C)C)cc1)C(O)c1ccc(Cl)cc1Cl (configuration not stated) | – | inactive: 1.79%
N#CC1=C2SCC(O)(c3ccccc3)N2C(=O)CC1c1ccccc1 (configuration not stated) | inconclusive [inhibitor, partial curve] | –
CSc1ccccc1-n1nnnc1SCC(=O)NCc1cccs1 | inconclusive [inhibitor, partial curve, poor fit] | –
COc1ccc2[nH]c3c(c2c1)CC(C)NC3=O (configuration not stated) | – | inactive: -2.39%
N#Cc1ccc(N=c2ssnc2Cl)cc1 | inconclusive [inhibitor, single point] | –
COc1cccc(OC)c1C(=O)Nc1cccnc1 | inconclusive [inhibitor, full curve, poor fit] | –
COC(=O)[C@@]1(Cc2ccccc2)[C@H]2c3cc(C(=O)N4CCCC4)n(Cc4ccsc4Br)c3C[C@H]2CN1C(=O)c1ccccc1 | inconclusive [inhibitor, partial curve, poor fit] | –
O=C(CN1C(=O)S/C(=C/c2ccncc2)C1=O)N1CCOCC1 | inconclusive [inhibitor, partial curve] | –
COc1ccccc1CNC(=O)c1ccc(S(=O)(=O)N(C)c2ccccc2)cc1 | inconclusive [inhibitor, full curve] | –
Cc1cccc(NC(=O)CN2C(=O)CNC2=O)c1 | inconclusive [inhibitor, full curve] | –
O=C(NCc1ccccc1Cl)c1cnc2sc(N3CCOCC3)nn2c1=O | – | inactive: -6.67%
Cc1ccc(NC(=O)CN(C)C(=O)COC(=O)CCS(=O)(=O)c2ccc(C)cc2)cc1 | inconclusive [inhibitor, partial curve, poor fit] | –
O=c1oc(-c2ccccc2NS(=O)(=O)c2ccc3ccccc3c2)nc2ccccc12 | inconclusive [inhibitor, partial curve] | –
CCN(CC)C(=O)CSC1=Nc2ccccc2C2=NC(c3ccccc3)C(=O)N12 (configuration not stated) | inconclusive [inhibitor, full curve] | –
CN1CCN(C(=O)c2ccc(N(Cc3ccc(Cl)cc3)S(C)(=O)=O)cc2)CC1 | inconclusive [inhibitor, full curve, poor fit] | –
O=C(N/N=C/c1sc(N2CCOCC2)nc1-c1ccccc1)c1ccccc1Cl | – | inactive: 2.61%
C/C=C(\C)C(=O)OC1C(C)=C2C(C1OC(=O)CCCCC)C(C)(OC(C)=O)CC(OC(=O)CCC)C1(O)C2OC(=O)C1(C)O (configuration not stated) | – | inactive: 10.3%
CCOC(=O)CNC(=O)CSc1ncnc2c1cnn2-c1ccccc1 | – | inactive: -3%

Compound | Potency | activity change, negative = inhibition
CCN(CC)c1ccc(NC(=O)CSc2nc3nc(C)cc(C)c3c(=O)[nH]2)cc1 | inconclusive [inhibitor, partial curve, poor fit] | –
Cc1nnc(N/N=C\c2ccc(-c3ccccc3[N+](=O)[O-])o2)n1N | – | inactive: -4.77%
C[C@H]1CCC(=O)N([C@H](CC#N)Cc2ccccc2)CC1 | inconclusive [inhibitor, full curve, poor fit] | –
Cc1cc(C)cc(NC(=O)Cc2ccc(NC3=NC4CS(=O)(=O)CC4S3)cc2)c1 (configuration not stated) | – | inactive: -7.96%
Cc1cc(C)cc(NC(=O)Nc2ccc3c(c2)N(C)C(=O)CS3)c1 | inconclusive [inhibitor, full curve, poor fit] | –
COc1ccc(NC(=O)CCc2nnc3n(C)c(=O)c4sccc4n23)cc1Cl | – | inactive: 8.15%
CC1(C(=O)O)Oc2cccnc2NC1=O (configuration not stated) | inconclusive [inhibitor, partial curve, poor fit] | –
CCCc1cc(C(=O)Nc2sc(C(C)=O)c(C)c2C(=O)OCC)no1 | inconclusive [inhibitor, full curve, poor fit] | –
CNC(=S)/N=C(/Nc1ccccc1)c1ccccc1 | inconclusive [inhibitor, full curve] | –
Cc1cc(C)n2nc(-c3ccc(F)cc3)nc2n1 | inconclusive [inhibitor, partial curve] | –
O=C(/C=C/c1ccccc1)NCCS(=O)(=O)N1CCN(c2ccccc2F)CC1 | inconclusive [inhibitor, full curve] | –
CCOc1ccc(CCNCc2c(C(=O)O)n(Cc3ccc(C)cc3)c3cc(OC)ccc23)cc1 | – | inactive: -12.5%
CN(Cc1ccccc1)C(=O)CSc1nc2ccsc2c(=O)n1-c1ccc(F)cc1 | – | inactive: -3.52%
CCOC(=O)c1cc(-c2ccccc2)sc1NC(=O)C(C)Sc1nnc(C)s1 (configuration not stated) | – | inactive: 10.3%
COc1ccc(NC(=O)C(=O)NNC(=O)c2cccs2)cc1 | – | inactive: -5.94%
COc1ccc(CS(=O)(=O)c2nc(C)cc(C)c2S(C)(=O)=O)cc1 | inconclusive [inhibitor, full curve] | –
O=C(N/N=C/C=C\c1ccccc1)c1cnccn1 | – | inactive: -14.2%
CN(C)c1ccc(C(CC(=O)O)NC(=O)c2ccc(Cl)cc2)cc1 (configuration not stated) | inconclusive [inhibitor, single point] | –
COc1nnc(-c2ccc(C)c(S(=O)(=O)NC(C)(C)CO)c2)c2ccccc12 | inconclusive [inhibitor, full curve, poor fit] | –
Oc1c(C=Nc2ccccc2Cl)[nH]c2ccccc12 | – | inactive: 3.44%
COCC(C)NC(=O)C1CCN(S(=O)(=O)c2ccc3ccccc3c2)CC1 (configuration not stated) | – | inconclusive: -15% [inhibitor]
COc1ccc(-c2[nH]ncc2N=Nc2cc(C)cc(C)c2)cc1 | inconclusive [inhibitor, full curve, poor fit] | –
COc1ccc(CNC(=O)C(c2ccco2)N(Cc2cccs2)C(=O)Cc2cccs2)cc1 (configuration not stated) | inconclusive [inhibitor, partial curve] | –

Compound | Potency | activity change, negative = inhibition
CC12CCC(=O)N1C(C(=O)Nc1cccc3ccccc13)CS2 (configuration not stated) | inconclusive [inhibitor, full curve, poor fit] | –
CCN(CC(=O)Nc1c(F)cccc1F)C(=O)c1ccc(N2C(=O)c3ccccc3C2=O)cc1 | inconclusive [inhibitor, single point] | –
Cc1ccc(NC(=S)N2CCN(S(C)(=O)=O)CC2)cc1 | inconclusive [inhibitor, full curve, poor fit] | –
CC1=Nc2ccc(C)cc2N(Cc2ccccc2)C(=O)C1 | inconclusive [inhibitor, full curve] | –
O=C(CC1SC(N2CCCCC2)=NC1=O)Nc1cccc(C(F)(F)F)c1 (configuration not stated) | inconclusive [inhibitor, full curve, poor fit] | –
CC(C)(C)OC(=O)[C@H](Cc1ccccc1)NC(=O)c1nc[nH]c1C(=O)N1CCc2ccccc2C1 | inconclusive [inhibitor, partial curve] | –
CNc1c(N=Cc2cccnc2)c(=O)n(C)c(=O)n1C | inconclusive [inhibitor, full curve] | –
Cc1ccc(-c2cc(C(=O)NCc3cnn(C)c3)c3cc(Br)ccc3n2)cc1 | inconclusive [inhibitor, full curve, poor fit] | –
O=C1N=c2ccccc2=C1c1sc(Nc2ccc(O)cc2)nc1O | inconclusive [inhibitor, partial curve] | –
O=C(c1cc2ccccc2cc1O)N1CCN(c2ccc([N+](=O)[O-])cc2)CC1 | inconclusive [inhibitor, full curve, poor fit] | –
Nc1c(C(=O)CSc2nncn2-c2ccccc2)c(=O)[nH]c(=O)n1C1CC1 | – | inactive: 6.63%
Cc1ccc(S(=O)(=O)N/N=C/c2cc(Br)c(C)o2)cc1 | inconclusive [inhibitor, full curve, poor fit] | –
Cc1ccc(S(=O)(=O)Nc2nc(-c3ccccc3)cs2)cc1 | – | inactive: -15%
Cc1nc2[nH]c(=O)c3c(n2n1)NC1=C(C(=O)CC(C)(C)C1)C3c1ccc(F)cc1 (configuration not stated) | inconclusive [inhibitor, full curve, poor fit] | –
O=C(COC(=O)c1ccc(S(=O)(=O)NCc2ccco2)cc1)Nc1ccc(OC(F)F)cc1 | inconclusive [inhibitor, single point] | –
COCCCn1c(SCC(=O)NCc2ccccc2)nc2c(sc3ccccc32)c1=O | – | inactive: 0.0952%
Cc1ccccc1C(=O)Nc1ccccc1Sc1ccccc1 | inconclusive [inhibitor, full curve, poor fit] | –
COCCN1CCN(C(=O)C2CCC(=O)N(CCc3ccccc3)C2)CC1 (configuration not stated) | inconclusive [inhibitor, full curve, poor fit] | –
CCOC(=O)c1ccc(NC(=O)C(CC)Sc2nc3ncccc3o2)cc1 (configuration not stated) | – | inactive: 2.39%
CCOC(=O)N1CCN(S(=O)(=O)c2ccc(OCC)c3ccccc23)CC1 | – | inactive: 10.3%
COc1ccc(C(=O)NCc2c(C)oc(C)c2C(=O)O)cc1 | inconclusive [inhibitor, full curve] | –
